# Test results taken from PubChem BioAssay (Tox21).
# Where “and” joins values, the source holds several entries; their conditions need not be identical. Equal values may be shown once. Some compounds were tested as several samples or in several runs, with calls that do not always agree. Calls of active or inactive are those of the source. Unless noted, calls come from the whole dose curve; as a rule, active = well fitted curve in the direction sought with a large enough effect in the repeat runs; inconclusive = weak or mixed curves; inactive = no such curve, though single readings can be large; an effect the other way counts as inactive or inconclusive.
# Test system: not listed separately
# Experiment: qHTS assay for identifying genotoxic compounds that show differential cytotoxicity against isogenic chicken DT40 cell lines with known DNA damage response pathways - Rad54/Ku70 mutant cell line (AID 743015); note: nearly all actives have a fitted effect of over 60% in size
# Details: DT40 Rad54/Ku70 mutant viability, CellTiter-Glo, 40 h; activity change, negative = cytotoxicity: at 66.8 µM (top of the series) unless noted
# % is set by controls: 0 for no effect and ±100 for the full control effect; potency is the fitted concentration of half-maximal effect; tags give direction and shape of the fitted curve or compound fluorescence and quenching.
Structure (SMILES),Potency,"activity change, negative = cytotoxicity"
O=C(O)/C=C/c1ccccc1,inactive,
CC(C)=CCl,"inconclusive: 69.4 µM [cytotoxic, partial curve, poor fit]",
CC/C=C\CCCCO,"inconclusive: 61.1 µM [cytotoxic, single point]",
CN1[C@@H]2CC[C@H]1CC(OC(=O)C(O)c1ccccc1)C2 (stereo partly specified),,inconclusive: -67.5%
O=C1NC(=O)C(c2ccccc2)(c2ccccc2)N1,"inconclusive: 54.5 µM [cytotoxic, single point] and inconclusive: 68.6 µM [cytotoxic, single point]",
CC1(C)CC(N)CC(C)(C)N1,inactive,

# Test system: not listed separately
# Experiment: qHTS assay to identify small molecule antagonists of the thyroid receptor (TR) signaling pathway - cell viability counter screen (AID 743064); note: nearly all actives have a fitted effect of over 50% in size
# Details: GH3.TRE-Luc viability, CellTiter-Fluor, 24 h; activity change, negative = cytotoxic: at 70.3 µM (top of the series) unless noted
# Method in brief: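 Viability of T3-stimulated (1 nM final) GH3.TRE-Luc cells is measured by CellTiter-Fluor fluorescence after 23.5 h compound exposure at 37 °C plus 30 min reagent incubation.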
row,Structure (SMILES),Potency
1,NCc1ccccc1Sc1ccccc1CO,"inconclusive: 18.8 µM [cytotoxic, single point]"
2,CCCCCCCCCOS(=O)(=O)O,"inconclusive: 61.1 µM [rising, single point]"
3,CC(C)OC(=O)C(C(=O)OC(C)C)=C1SC=CS1,"inconclusive: 11.9 µM [rising, partial curve, poor fit]"
4,O=CC1CC=CCC1 (stereo unspecified),"inconclusive: 68 µM [rising, single point]"
5,CC/C=C\CC/C=C/CO,"inconclusive: 0.545 µM [rising, single point]"
6,CN1[C@@H]2CC[C@H]1CC(OC(=O)C(O)c1ccccc1)C2 (stereo partly specified),"inconclusive: 7.5 µM [cytotoxic, partial curve]"
7,O=Cc1cc2ccccc2o1,inactive
8,Cc1ccc(O)c([N+](=O)[O-])c1,"inconclusive: 6.19 µM [rising, single point]"
9,O=C1C(N(CO)C(=O)NCO)N(CO)C(=O)N1CO (stereo unspecified),"inconclusive: 68.5 µM [rising, single point]"
10,COC(=O)c1ccc(C=O)cc1,inactive
11,C[Si]1(C)O[Si](C)(C)O[Si](C)(C)O[Si](C)(C)O1,"inconclusive: 69.4 µM [rising, single point]"
12,CC1(C)CC(N)CC(C)(C)N1,inactive
13,NC(=O)c1cn(Cc2c(F)cccc2F)nn1,inactive

# Target: Estrogen receptor (Homo sapiens) (UniProt P03372)
# Sequence of UniProt P03372 (P03372 whole entry, looked up): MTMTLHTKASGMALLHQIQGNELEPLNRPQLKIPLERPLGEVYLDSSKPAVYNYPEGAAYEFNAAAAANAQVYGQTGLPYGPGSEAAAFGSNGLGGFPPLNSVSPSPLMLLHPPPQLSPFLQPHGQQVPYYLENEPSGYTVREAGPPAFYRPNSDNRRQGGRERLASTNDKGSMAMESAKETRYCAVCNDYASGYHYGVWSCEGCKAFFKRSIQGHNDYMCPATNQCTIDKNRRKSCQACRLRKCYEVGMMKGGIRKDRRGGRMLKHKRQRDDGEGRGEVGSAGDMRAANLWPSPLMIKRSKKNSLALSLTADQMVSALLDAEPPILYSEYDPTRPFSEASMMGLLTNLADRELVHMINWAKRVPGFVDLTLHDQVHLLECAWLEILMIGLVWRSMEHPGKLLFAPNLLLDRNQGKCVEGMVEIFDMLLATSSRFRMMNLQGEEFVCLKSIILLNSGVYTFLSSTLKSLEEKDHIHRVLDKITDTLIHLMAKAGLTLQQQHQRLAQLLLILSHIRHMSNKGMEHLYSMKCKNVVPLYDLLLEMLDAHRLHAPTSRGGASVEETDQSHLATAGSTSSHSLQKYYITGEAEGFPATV
# Experiment: qHTS assay to identify small molecule antagonists of the estrogen receptor alpha (ER-alpha) signaling pathway (AID 743069; active = well fitted curve in the direction sought with a large enough effect in the signal ratio in the repeat runs, not every such curve was filed as active; inconclusive = weak or mixed curves, or effect the other way; inactive = no such curve, though single readings can be large or run the other way; the % refers to the signal ratio)
# Details: HEK293 ER-alpha-UAS-bla, beta-lactamase ratio, antagonist mode; activity, negative = inhibition: at 69.4 µM (top of the series) unless noted
# Method in brief: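 HEK293 cells stably carrying an ER-alpha-UAS-bla beta-lactamase reporter were pre-cultured overnight in 2% charcoal-stripped FBS medium. Test compounds in DMSO were added together with 17beta-estradiol for 18 hr at 37C. Read-out was fluorescence after 2 hr with LiveBLAzer B/G FRET substrate at room temperature.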
row,Structure (SMILES),Potency
1,CCCCCCCCCCOc1cc2c(=O)c(C(=O)OCC)c[nH]c2cc1OCC,inactive
2,c1ccc2c(c1)[nH]c1ccccc12,"inconclusive: 11 µM [falling, full curve]"
3,COC(=O)c1ccc(C=O)cc1,inactive

# Test system: not listed separately
# Experiment: qHTS assay to identify small molecule antagonists of the estrogen receptor alpha (ER-alpha) signaling pathway - cell viability counter screen (AID 743074; calls by dose curve; note: nearly all actives have a fitted effect of over 45% in size)
# Details: ERalpha-bla HEK293 viability, CellTiter-Glo luminescence, 18 h; series mostly up to 69.4 µM
Structure (SMILES),Potency,"activity, negative = cytotoxicity"
CCCCCCCCCOS(=O)(=O)O,inactive,
FC(F)(F)C(F)(F)C(F)(F)C(F)(F)C(F)(F)C(F)(F)C(F)(F)C(F)(F)C(F)(F)C(F)(F)F,,inactive: -10% [at 6.72 µM]
C=C(C)C(=O)OC,"inconclusive: 5.32 µM [rising, full curve, poor fit]",
CC(C)=CCl,"inconclusive: 14 µM [cytotoxic, partial curve, poor fit] and inconclusive: 61.7 µM [cytotoxic, single point]",
CCCCCCCCCCCCCCCCCC#N,inactive,
O=C1C(N(CO)C(=O)NCO)N(CO)C(=O)N1CO (stereo unspecified),inactive,
CC1=C(C/C=C(\C)CCC[C@H](C)CCC[C@H](C)CCCC(C)C)C(=O)c2ccccc2C1=O,"inconclusive: 4.77 µM [cytotoxic, partial curve, poor fit]",
O=C1NC(=O)C(c2ccccc2)(c2ccccc2)N1,"inconclusive: 30.9 µM [rising, partial curve, poor fit]",
c1ccc2c(c1)[nH]c1ccccc12,"inconclusive: 54 µM [cytotoxic, single point]",
C=CC(C)(O)CC/C=C(\C)CC (stereo unspecified),inactive,

# Target: Estrogen receptor (Homo sapiens) (UniProt P03372)
# Experiment: qHTS assay to identify small molecule agonists of the estrogen receptor alpha (ER-alpha) signaling pathway (AID 743075; calls by dose curve)
# Details: HEK293 ER-alpha-UAS-bla, beta-lactamase FRET ratio, 18 h; activation: at 70.1 µM (top of the series)
row,Structure (SMILES),Potency
1,COCC(C)OC(C)=O (stereo unspecified),"inconclusive: 8.64 µM [falling, full curve]"
2,O=C(O)/C=C/c1ccccc1,inactive
3,CC(C)=CCl,active: 49.6 µM [inconclusive] and inactive
4,O=C1C(N(CO)C(=O)NCO)N(CO)C(=O)N1CO (stereo unspecified),inactive
5,COC(=O)c1ccc(C=O)cc1,"inconclusive: 27.6 µM [falling, partial curve]"

# Target: Estrogen receptor (Homo sapiens) (UniProt P03372)
# Experiment: qHTS assay to identify small molecule agonists of the estrogen receptor alpha (ER-alpha) signaling pathway using the BG1 cell line (AID 743079); note: nearly all actives have a fitted effect of over 20% in size
# Details: BG1Luc4E2 cells, ERE-luciferase agonist, 22 h; activation: at 70.3 µM (top of the series) unless noted
Structure (SMILES),activation,Potency
COCC(C)OC(C)=O (stereo unspecified),inconclusive: 1.93% [phenotype inactive],
NCC[C@H](O)C(=O)N[C@@H]1C[C@H](N)[C@@H](O[C@H]2O[C@H](CN)[C@@H](O)[C@H](O)[C@H]2O)[C@H](O)[C@H]1O[C@H]1O[C@H](CO)[C@@H](O)[C@H](N)[C@H]1O,,active: 23.7 µM
CN(C)CCc1c[nH]c2ccc(CS(=O)(=O)N3CCCC3)cc12,,inactive
O=C1C(N(CO)C(=O)NCO)N(CO)C(=O)N1CO (stereo unspecified),inconclusive: 1.45% [phenotype inactive],
COC(=O)c1ccc(C=O)cc1,inconclusive: 30.5% [phenotype inactive],
C[Si]1(C)O[Si](C)(C)O[Si](C)(C)O[Si](C)(C)O1,,inactive

# Test system: not listed separately
# Experiment: qHTS assay to identify small molecule antagonists of the estrogen receptor alpha (ER-alpha) signaling pathway using the BG1 cell line - cell viability counter screen (AID 743081);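 note: compound given together with 17beta-estradiol as the ER stimulus; nearly all actives have a fitted effect of over 45% in size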
# Details: BG1Luc4E2 viability, CellTiter-Fluor, 22 h; activity change, negative = cytotoxicity: at 70.3 µM (top of the series) unless noted
row,Structure (SMILES),Potency
1,CC(C)=CCl,inactive
2,CCCCCCCCCCCCCCCCCC#N,"inconclusive: 69.6 µM [cytotoxic, partial curve, poor fit]"
3,O=C(O)C(=O)Nc1cccc(-c2nn[nH]n2)c1,"inconclusive: 13.3 µM [cytotoxic, single point]"
